Data taken from publication PMC4336329 (PLoS ONE, 2015).
The whole screen tested about 310,000 compounds, of which about 14,000 (4.5%) showed an effect of 50% or more. The effect is printed as a negative number. Some of the results follow. Where a SMILES comes first, the peptide text is derived from it. The star is where a group is joined. Boc = CC(C)(C)OC(=O)*

target: human ether-à-go-go-related gene (hERG) potassium channel (human, UniProt Q12809); assay: primary screen, population patch clamp on CHO cells stably expressing hERG
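Note: peak tail current of the secondary pulse compared with the same well before compound.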

Sequence of human ether-à-go-go-related gene (hERG) potassium channel (Q12809 whole entry, looked up): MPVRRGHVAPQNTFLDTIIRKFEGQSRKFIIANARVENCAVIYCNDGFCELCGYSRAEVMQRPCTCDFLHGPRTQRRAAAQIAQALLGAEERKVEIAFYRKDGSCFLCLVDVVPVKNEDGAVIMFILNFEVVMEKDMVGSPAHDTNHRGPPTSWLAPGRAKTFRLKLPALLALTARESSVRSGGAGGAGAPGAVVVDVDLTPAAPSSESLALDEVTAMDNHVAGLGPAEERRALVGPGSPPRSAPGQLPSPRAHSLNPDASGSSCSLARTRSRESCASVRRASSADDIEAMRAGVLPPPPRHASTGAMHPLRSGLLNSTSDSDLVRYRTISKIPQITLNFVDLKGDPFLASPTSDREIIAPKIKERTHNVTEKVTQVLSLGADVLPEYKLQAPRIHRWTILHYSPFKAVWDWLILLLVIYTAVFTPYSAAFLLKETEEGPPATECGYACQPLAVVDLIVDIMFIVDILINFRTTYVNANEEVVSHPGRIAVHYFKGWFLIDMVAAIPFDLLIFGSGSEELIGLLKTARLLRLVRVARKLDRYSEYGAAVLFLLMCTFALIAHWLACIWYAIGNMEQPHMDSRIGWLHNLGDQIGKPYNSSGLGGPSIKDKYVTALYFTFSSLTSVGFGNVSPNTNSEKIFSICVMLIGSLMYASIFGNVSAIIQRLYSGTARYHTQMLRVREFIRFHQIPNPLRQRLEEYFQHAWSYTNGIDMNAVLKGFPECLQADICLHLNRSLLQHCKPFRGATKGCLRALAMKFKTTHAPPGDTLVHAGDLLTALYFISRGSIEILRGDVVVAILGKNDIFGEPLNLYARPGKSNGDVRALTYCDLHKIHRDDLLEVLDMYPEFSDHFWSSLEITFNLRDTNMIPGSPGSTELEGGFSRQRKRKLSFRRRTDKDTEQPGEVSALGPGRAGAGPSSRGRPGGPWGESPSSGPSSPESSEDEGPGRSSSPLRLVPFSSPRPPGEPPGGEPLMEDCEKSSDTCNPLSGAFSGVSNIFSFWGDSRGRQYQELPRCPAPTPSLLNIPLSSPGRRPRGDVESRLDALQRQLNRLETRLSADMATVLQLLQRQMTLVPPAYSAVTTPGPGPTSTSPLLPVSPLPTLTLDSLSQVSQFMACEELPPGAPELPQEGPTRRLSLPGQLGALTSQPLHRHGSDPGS

| SMILES | hERG current change (%, negative = inhibition) at 10uM [%] |
| --- | --- |
| CC1C[C@@]2(NC(=O)NC2=O)C(C)CN1C (some centres unmarked) | 21.2 |
| OCCN(Cc1ccccc1)C(=S)NC1CCCCC1 | 17.9 |
| CNCCCCOc1ccc(C(C)(C)C)cc1Cl.O=C(O)C(=O)O | -12.7 |
| O=[N+]([O-])c1cccc(S(=O)(=O)N/N=C\c2ccc3c(c2)OCO3)c1 | 5.33 |
| Cc1ccccc1-n1c(-c2ccoc2C)n[nH]c1=S | 15.5 |
| COC(=O)C1=C(C)Nc2nnnn2C1c1cccnc1 (centres unmarked) | 12.2 |
| CCCNC(=O)C1CC(=O)N(c2ccc(OCc3ccc(Cl)cc3)cc2)C1 (centres unmarked) | 11.9 |
| N[C@@H](Cc1ccccc1)C(=O)N1CCC(C(=O)NCC(=O)Nc2ccc(F)cc2)CC1 | 12.3 |
| Cc1cc(C(=O)NCC23CC4CC(CC(C4)C2)C3)c(C)o1 | -13.7 |
| CC(C)c1nn2c(N)c(/C=C3\C=Nc4ccccc43)c(=O)nc2s1 | 18 |
| CSc1nnc(-c2cc(C)on2)n1-c1ccccc1 | 7.8 |
| O=C(O)c1ccccc1NS(=O)(=O)c1cccc(-n2sc3ccccc3c2=O)c1 | 30.4 |
| Nc1ncnc2c1c(-c1ccc(Oc3ccccc3)cc1)cn2C1CCCC1 | 10.5 |
| Cc1ccsc1C(=O)N1CCCC(CO)(Cc2ccccc2)C1 (centres unmarked) | -3.04 |
| O=C(CSc1nnc(Cc2cc(=O)[nH]c(=O)[nH]2)n1-c1ccc(Cl)cc1)N1CCc2ccccc21 | 14 |
| O=C(c1cccs1)N1CCCC(c2nc3c(nnn3Cc3cccc(Cl)c3)c(=O)[nH]2)C1 (centres unmarked) | -36.6 |
| CC(=O)Nc1ccc(S(=O)(=O)N(Cc2cccnc2)Cc2cc3ccccc3[nH]c2=O)cc1 | 11.4 |
| Cc1ccc(CNCc2ccco2)cc1.O=C(O)C(=O)O | 2.8 |
| CC(=O)N1N=C2C3CCN(CC3)C2C1c1cccc2ccccc12 (centres unmarked) | 2.64 |

| SMILES | hERG current change (%, negative = inhibition) at 10uM [%] |
| --- | --- |
| Cc1cc(C)c(S(=O)(=O)NC(C)C)c(C)c1-n1cnnn1 | 11.9 |
| Cc1cc(NC(=O)c2cc(C(C)C)on2)nn1Cc1ccc(Cl)cc1 | 7.56 |
| Cn1cc(C(=O)N2CCN(c3ccccn3)CC2)c(=O)c2cc(S(=O)(=O)N3CCOCC3)ccc21 | -9.72 |
| COc1ccc(NC(=O)CC(Cc2ccc(Cl)cc2)C(=O)O)cc1 (centres unmarked) | 11.9 |
| Cc1cc(C)cc(N(CC(=O)NCc2ccc(F)cc2)C(=O)CCC(=O)Nc2ccccn2)c1 | 18.7 |
| CSCCC1NC(=O)N(C(C)C(=O)Nc2cc(Cl)cc(Cl)c2)C1=O (centres unmarked) | -5.88 |
| COc1ccc(/C=N/Nc2nc(C)c([N+](=O)[O-])c(N(C)c3ccccc3)n2)cc1OC | 6.54 |
| CC(=O)c1ccc(N=C2C(=O)Nc3ccccc32)cc1 | 12.2 |
| CNC(=S)Nc1ccc(C(N)=O)cc1 | 5.37 |
| CCCc1nnc(NC(=O)Nc2ccccc2OC)s1 | 13 |
| CC12CCC(C(=O)NCC3CCCO3)(OC1=O)C2(C)C (centres unmarked) | 12.3 |
| CCCCOc1ccc(C(=O)NN2CCOCC2)cc1 | 1.09 |
| CCN(CC(=O)NC1CC1)S(=O)(=O)c1ccc(OC)cc1 | 14.4 |
| COc1ccc(S(=O)(=O)n2cnc(C)c2)cc1 | 17.9 |
| Cn1nc([N+](=O)[O-])nc1Oc1ccccc1F | 9.45 |
| COC(=O)[C@@H]1CCCN1C(=O)[C@@H](NC(=O)OC(C)(C)C)C(C)C (Boc-Val-Pro-OMe) | 7.28 |
| CC1(C)CCc2c([nH]c3ccccc3c2=O)O1 | 12.8 |
| CC(C(=O)NCCN1C(=O)S/C(=C\c2cccs2)C1=O)N1C(=O)c2ccccc2C1=O (centres unmarked) | -16.3 |
| COc1ccccc1N/C=C/c1onc(C)c1[N+](=O)[O-] | 1.63 |

| SMILES | hERG current change (%, negative = inhibition) at 10uM [%] |
| --- | --- |
| O=[N+]([O-])c1ccc(S(=O)(=O)N/N=C/c2ccc3c(c2)OCO3)cc1 | 4.04 |
| CCOC(=O)c1c(NC(=O)Cn2nnc(-c3ccc(Cl)cc3)n2)sc(CC)c1C | 15.4 |
| O=S(=O)(c1ccc(F)cc1)N1CCc2ccccc21 | -16.1 |
| COc1ccc(C2=NN(C(=O)c3ccccc3)C(c3ccc(OC)c(OC)c3)C2)c(OC(C)=O)c1 (centres unmarked) | -3.05 |
| CCN(C(=O)c1ccc(NC(C)=O)cc1)c1ccccc1 | -0.241 |
| N/C(=N\OC(=O)Cc1ccccc1[N+](=O)[O-])c1ccccn1 | 1.08 |
| CCOC(=O)N1CCC(N2C(=O)c3ccc(C(=O)Nc4ccc(OC)cc4)cc3C2=O)CC1 | 12.7 |
| Cc1nc2ccc(Br)cc2c(=O)n1Cc1cccs1 | -49.3 |
| CCn1c(=O)n(CC)c2cc(S(=O)(=O)Nc3cc(C)cc(C)c3C#N)ccc21 | -7.11 |
| O=C(Cc1ncc(C(F)(F)F)cc1Cl)NCc1cccnc1 | 17.1 |
| Cc1nc(N2CCN(c3ccccc3)CC2)nc2c1C(=O)CC(C)C2 (centres unmarked) | 2.59 |
| CCc1ccccc1NC(=O)CCCSc1nc2ccccc2s1 | 2.13 |
| O=C1NC(=O)N(c2ccc3c(c2)OCO3)C(=O)/C1=C\c1ccc(-c2ccccc2C(=O)O)o1 | 18 |
| O=S(=O)(CCN1CCSCC1)c1ccccc1 | 12.9 |
| CC(=O)Nc1ccc(C(=O)OCC(=O)Nc2ccc(N3CCOCC3)cc2)cc1 | 18 |
| O=c1c(Cc2ccccc2)c(O)nc2n1CCCS2 | 8.1 |
| Cc1cccc(C)c1NC(=O)CN(C)C(=O)c1ccc(NS(=O)(=O)c2ccc3[nH]c(=O)[nH]c3c2)cc1 | 8.86 |
| COc1ccc(NC(=O)c2ccccc2NC(=O)CN2CCCCCC2)cc1 | 8.82 |
